Publication PMC13052863 (PLOS One, 2026)
Several values for one entry are separate records, joined by “and”; a condition that tells them apart may be missing. Equal entries are not always repeated.

Key:
[1] = system: A. suspensa eIF4A mutant Y160L; details: S2 Table; A. suspensa mut., (AG)5 RNA, AMP-PNP, 100 μM inhibitor
Source text: (§1) TSA is used to determine protein stability by measuring the melting temperature (Tm) of a protein alone or in a complex (here with RNA oligos and inhibitors) using the fluorescent dye SYPRO Orange. The latter binds to hydrophobic residues which usually are in the core of the protein. With increasing temperature, the protein starts to unfold and expose its hydrophobic residues, allowing the dye to bind. Thus, with increasing temperature, fluorescence first increases until it reaches a peak, followed by a decrease corresponding to the dissociation of the protein-dye complex due to high temperatures. Tm is calculated as the inflexion point of the curve. A shift of the melting curve to higher temperature is indicative of a stabilization effect (here clamping of the protein to the RNA oligo in presence of the inhibitor), whereas a shift to lower temperature indicates a destabilization effect. Here, the difference in melting temperature ΔTm (°C) was calculated between the eIF4A and the eIF4A-RNA-AMP-PNP complex with two inhibitor classes (rocaglate and pateamine in Fig 5) or different RNA oligos (Fig 6). TSA experiments were performed on a real-time PCR system (QuantStudio™ 3, Applied Biosystems, Waltham, MA, USA) in a MicroAmp™ Fast Optical 96-well plate (Applied Biosystems, Waltham, MA, USA) using QuantStudio™ Design & Analysis software (version 1.4.2.). 5 μM of recombinant eIF4A was incubated with 50 μM of a polypurine RNA (AG)5 (Biomers, Ulm, Germany), 1 mM AMP-PNP (Roche, Basel, Switzerland), 100 μM of inhibitors (silvestrol, RocA, CR-31-B (+), CR-31-B (-), zotatifin, PatA, DMDAPatA) and 75 μM of SYPRO Orange (S6650, Invitrogen, Carlsbad, CA, USA) in 20 mM HEPES–KOH buffer pH 7.5, 100 mM KCl, 5 mM MgCl2, 1 mM DTT and 10% (v/v) glycerol at RT in a final volume of 20 µL. In the first step, the protein sample was subjected to a cooling rate of 1.6 °C/s until a temperature of 10 °C was reached and kept constant for two minutes. In the second step, the temperature was increased by 0.05 °C/s until a temperature of 95 °C was reached and kept constant for one minute. In the final step, the temperature was decreased by 1.6 °C/s until 10 °C and kept constant for one minute. The wavelength of the fluorescence scan for excitation and emission was set to the spectroscopic maxima of SYPRO® Orange (472 nm and 570 nm, respectively). The melting curves were analyzed using Protein Thermal Shift Software (version 1.3) from Thermo Fisher Scientific.

[2] = system: Ae. aegypti eIF4A mutant H161L; details: S2 Table; Ae. aegypti mut., (AG)5 RNA, AMP-PNP, 100 μM inhibitor
Source text: as §1

Ae. aegypti eIF4A wt = system: Ae. aegypti eIF4A wt
Source text: as §1

A. suspensa eIF4A wt = system: A. suspensa eIF4A wt
Source text: as §1

D. melanogaster eIF4A wt = target: T1, D. melanogaster eIF4A wt (Drosophila melanogaster, UniProt Q02748); format: binding; details: S2 Table, (AG)5 RNA, AMP-PNP, 100 μM inhibitor
T1 construct: made in house; host or cells: E. coli BL21 (DE3)

[3] = target: T2, D. melanogaster eIF4A mutant Y160L (Drosophila melanogaster, UniProt Q02748, Y160L); format: binding; details: S2 Table; D. melanogaster mut., (AG)5 RNA, AMP-PNP, 100 μM inhibitor
T2 construct: made in house; host or cells: E. coli BL21 (DE3)

For `CC(/C=C/C(C)=C/[C@@H]1Cc2nc(cs2)CCCCC(=O)O[C@@H](C)C/C(C)=C/C=C\C(=O)O1)=C\CN(C)C` [DMDAPatA, desmethyl desamino pateamine A], the “∆Tm” value [1] was 2.50 °C, the “∆Tm” value [2] was 7.41 °C and the “∆Tm” value (Ae. aegypti eIF4A wt) was 8.6 °C. The “∆Tm” value (A. suspensa eIF4A wt) was 6.93 °C, the “∆Tm” value (D. melanogaster eIF4A wt) was 8.86 °C and the “∆Tm” value [3] was 4.00 °C.
With `CC(/C=C/C(C)=C/[C@@H]1Cc2nc(cs2)[C@@H](C)C[C@@H](N)CC(=O)O[C@@H](C)C/C(C)=C/C=C\C(=O)O1)=C\CN(C)C` [PatA, pateamine A] the “∆Tm” value [2] was 12.09 °C, the “∆Tm” value (A. suspensa eIF4A wt) was 9.44 °C and the “∆Tm” value (D. melanogaster eIF4A wt) was 8.43 °C. The “∆Tm” value [3] was 7.5 °C.
With `CONC(=O)C1C(O)C2(O)c3c(OC)cc(OC)cc3OC2(c2ccc(OC)cc2)C1c1ccccc1` (stereo not drawn) [CR-31-B (+)] the “∆Tm” value [1] was -3.46 °C, the “∆Tm” value [2] was 2.21 °C and the “∆Tm” value (Ae. aegypti eIF4A wt) was 1.89 °C. For the same molecule, the “∆Tm” value (A. suspensa eIF4A wt) was -3.20 °C, the “∆Tm” value (D. melanogaster eIF4A wt) was -2.27 °C and the “∆Tm” value [3] was -2.10 °C.
For `COC(=O)[C@H]1[C@@H](O)[C@@]2(O)c3c(OC)cc(O[C@@H]4O[C@@H]([C@H](O)CO)CO[C@H]4OC)cc3O[C@@]2(c2ccc(OC)cc2)[C@@H]1c1ccccc1` [silvestrol], the “∆Tm” value [2] was 7.84 °C, the “∆Tm” value (D. melanogaster eIF4A wt) was 9.55 °C and the “∆Tm” value [3] was 1.76 °C.
In the case of `COc1cc2c(c(OC)n1)[C@]1(O)[C@H](O)[C@H](CN(C)C)[C@@H](c3ccccc3)[C@]1(c1ccc(C#N)cc1)O2` [zotatifin], the “∆Tm” value [1] was 0.07 °C, the “∆Tm” value [2] was 6.25 °C and the “∆Tm” value (Ae. aegypti eIF4A wt) was 7.47 °C. The “∆Tm” value (A. suspensa eIF4A wt) was 3.56 °C, the “∆Tm” value (D. melanogaster eIF4A wt) was 3.24 °C and 3 °C and the “∆Tm” value [3] was 1.48 °C.
In the case of `CONC(=O)C1C(O)C2(O)c3c(OC)cc(OC)cc3OC2(c2ccc(OC)cc2)C1c1ccccc1` (stereo not drawn) [CR-31-B (-)], the “∆Tm” value [2] was 7.50 °C, the “∆Tm” value (D. melanogaster eIF4A wt) was 6.55 °C and the “∆Tm” value [3] was 0.74 °C.
In the case of `COc1ccc([C@@]23Oc4cc(OC)cc(OC)c4[C@]2(O)[C@H](O)[C@H](C(=O)N(C)C)[C@H]3c2ccccc2)cc1` [RocA, rocaglamide A], the “∆Tm” value [1] was 0.97 °C, the “∆Tm” value [2] was 6.87 °C and the “∆Tm” value (Ae. aegypti eIF4A wt) was 8.14 °C. For the same molecule, the “∆Tm” value (A. suspensa eIF4A wt) was 3.89 °C, the “∆Tm” value (D. melanogaster eIF4A wt) was 4.52 °C and the “∆Tm” value [3] was 0.68 °C.
